Data published in PubChem BioAssay (Tox21).
Values joined by “and” are separate entries in the source; they are usually repeats but may differ in a detail not shown here. Equal values may be shown once. This list was built around the results that the source calls inconclusive (neither active nor inactive); the mix of calls is not that of the screen. Potencies beside an inconclusive call are fits to weak or partial responses and may not hold up. Some structures have more than one record in an assay (separate samples or runs), and their calls can disagree. Active and inactive are the calls of the source. Unless noted, the call rests on the fitted dose curve; in most records, active means well fitted curve in the direction sought with a large enough effect in the repeat runs; inconclusive means weak or mixed curves; inactive means no such curve, though single readings can be large; an effect the other way counts as inactive or inconclusive.

Experiments:
[1] = molecular target: Nuclear receptor subfamily 1 group I member 3 (Homo sapiens) (UniProt Q14994); test: qHTS assay to identify small molecule antagonists of the constitutive androstane receptor (CAR) signaling pathway (AID 1224838); further: nearly all actives have a fitted effect of over 40% in size
Method in brief: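 Compounds were titrated across 15 concentrations onto HepG2 cells double-stably expressing hCAR and a CYP2B6-2.2kb reporter, together with 50 nM CITCO (final). After 24 h at 37 C, luciferase activity was measured by luminescence.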

[2] = qHTS assay to identify small molecule antagonists of the estrogen related receptor signaling pathway with the pleiotropic PPARgamma coactivator (PGC) from Tox21 10K library - cell viability counter screen (AID 1224840; active means well fitted cell-killing curve with a large enough effect in the repeat runs, not every such curve was filed as active; inconclusive means weak or mixed curves, or effect the other way; inactive means no such curve, though single readings can be large or run the other way; further: nearly all actives have a fitted effect of over 40% in size)
Method in brief: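 Step one, plate 2,000 PGC/ERR cells per well; step two, incubate 6 h at 37 C/5% CO2; step three, pin-transfer compounds; step four, incubate 17.5 h; step five, add CellTiter-Fluor and read fluorescence after 30 min.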

[3] = qHTS assay to identify small molecule agonists of the hypoxia (HIF-1) signaling pathway - cell viability counter screen (AID 1224844; calls by dose curve; further: nearly all actives have a fitted effect of over 50% in size)
Method in brief: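 Tox21 10K compounds were added to HRE-bla ME-180 cells (0.5% dialyzed FBS) and incubated 17 hrs at 37C; ATP-based CellTiter-Glo luminescence then reported cell viability in the same wells.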

[4] = qHTS assay to identify small molecule agonists of the hypoxia (HIF-1) signaling pathway (AID 1224846; active means well fitted activation curve with a large enough effect in the signal ratio in the repeat runs, not every such curve was filed as active; inconclusive means weak or mixed curves; the % refers to the signal ratio; on activation: on the % scale 0 is the no-effect control and ±100 the full control effect); settings: HRE-bla ME-180 cells, beta-lactamase ratio, 17 h; activation: at 76.8 µM (top of the series) unless noted
Method in brief: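 Steps: seed ME-180 HRE-bla cells (2,000/well, 0.5% dialyzed FBS); incubate 5 hrs at 37C; pin-transfer compounds or DMSO; incubate 17 hrs; add LiveBLAzer B/G substrate CCF4-AM; measure reporter activation by FRET.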

[5] = qHTS assay to identify small molecule agonists of H2AX - cell viability counter screen (AID 1224847; calls by dose curve; further: nearly all actives have a fitted effect of over 30% in size)
Method in brief: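 After overnight plating of 1000 CHO-K1 cells per well, a 15-concentration compound series was applied for 3 hr at 37C. Luminescence from CellTiter-Glo, read following 30 min at room temperature, reflected cell viability.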

[6] = qHTS assay to identify small molecule agonists of the estrogen related receptor signaling pathway with the pleiotropic PPARgamma coactivator (PGC) from Tox21 10K library (AID 1224842); further: nearly all actives have a fitted effect of over 15% in size
Method in brief: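 PGC/ERR reporter cells (NTP line) were seeded 2,000 per well, rested 6 h at 37 C/5% CO2, then pin-dosed with compounds in DMSO for 18 h at 37 C; luciferase read by One-Glo luminescence after 30 min at room temperature.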

[7] = molecular target: Nuclear receptor subfamily 1 group I member 3 (Homo sapiens) (UniProt Q14994); test: qHTS assay to identify small molecule agonists of the constitutive androstane receptor (CAR) signaling pathway (AID 1224839); further: nearly all actives have a fitted effect of over 15% in size;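 on activation: HepG2 cells stably carrying human CAR and a CYP2B6 luciferase reporter; on the % scale 0 is the no-effect control and ±100 the full control effect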
Method in brief: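 Using human hepatoma HepG2 cells engineered with hCAR and a CYP2B6-2.2kb reporter, 15-concentration compound series were incubated 24 h alongside PK11195 at 0.75 uM final, with luminescence quantified afterwards.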

[8] = qHTS assay to identify small molecule antagonists of the estrogen related receptor signaling pathway with the pleiotropic PPARgamma coactivator (PGC) from Tox21 10K library (AID 1224841; call rule not given here; further: actives are mostly falling curves and most rising ones were filed inactive; nearly all actives have a fitted effect of over 50% in size)
Method in brief: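 Antagonism in this quantitative HTS is taken from loss of luciferase signal in PGC/ERR cells. Cells (2,000/well) are treated with compounds in DMSO after a 6 h settling period and read by One-Glo luminescence after 18 h.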

[9] = molecular target: Thyrotropin receptor (Homo sapiens) (UniProt P16473); test: qHTS assay to identify small molecule agonists of the thyroid stimulating hormone receptor (TSHR) signaling pathway (AID 1224843; calls by dose curve; further: nearly all actives have a fitted effect of over 45% in size; on activation: on the % scale 0 is the no-effect control and ±100 the full control effect); settings: TSHR-HEK293 cells, cAMP HTRF, agonist mode, 30 min; activation: at 92.4 µM (top of the series) unless noted
Method in brief: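 TSHR-expressing HEK293 cells (800 per well) were exposed to compounds for 30 min at room temperature. cAMP was then detected by HTRF competition with cAMP-d2 and anti-cAMP cryptate, read after 1 h at room temperature. Fifteen concentrations, triplicate.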

[10] = qHTS assay to identify small molecule agonists of H2AX (AID 1224845; active means well fitted activation curve with a large enough effect in the signal ratio in the repeat runs, not every such curve was filed as active; inconclusive means weak or mixed curves; the % refers to the signal ratio; on activation (H2AX phosphorylation): on the % scale 0 is the no-effect control and ±100 the full control effect); settings: CHO-K1 phospho-H2AX Ser139 HTRF, 3 h; activation (H2AX phosphorylation): at 154 µM (top of the series) unless noted
Method in brief: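 Wild-type CHO-K1 cells plated overnight, then exposed 3 hr at 37C to compounds at 15 concentrations (0.76% DMSO). Lysed, then HTRF anti-pH2AX(S139)-cryptate/anti-H2AX-d2 detection after 24 hr at room temperature; emissions 665 and 620 nm.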
Potency means the concentration at half of the fitted maximal effect; tags describe the fitted curve by direction and shape or compound fluorescence and quenching.

UniProt Q14994, sequence (Q14994 whole entry, looked up): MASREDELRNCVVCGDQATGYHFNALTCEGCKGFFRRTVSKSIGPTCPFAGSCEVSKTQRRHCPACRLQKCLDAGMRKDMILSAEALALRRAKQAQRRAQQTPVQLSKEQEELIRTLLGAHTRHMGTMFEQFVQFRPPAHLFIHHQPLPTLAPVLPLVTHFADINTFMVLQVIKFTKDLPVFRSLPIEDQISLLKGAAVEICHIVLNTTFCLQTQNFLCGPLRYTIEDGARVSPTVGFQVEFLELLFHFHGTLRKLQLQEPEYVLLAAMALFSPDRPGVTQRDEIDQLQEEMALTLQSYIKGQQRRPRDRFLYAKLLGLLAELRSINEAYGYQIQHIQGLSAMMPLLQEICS
UniProt P16473, sequence (P16473 whole entry, looked up): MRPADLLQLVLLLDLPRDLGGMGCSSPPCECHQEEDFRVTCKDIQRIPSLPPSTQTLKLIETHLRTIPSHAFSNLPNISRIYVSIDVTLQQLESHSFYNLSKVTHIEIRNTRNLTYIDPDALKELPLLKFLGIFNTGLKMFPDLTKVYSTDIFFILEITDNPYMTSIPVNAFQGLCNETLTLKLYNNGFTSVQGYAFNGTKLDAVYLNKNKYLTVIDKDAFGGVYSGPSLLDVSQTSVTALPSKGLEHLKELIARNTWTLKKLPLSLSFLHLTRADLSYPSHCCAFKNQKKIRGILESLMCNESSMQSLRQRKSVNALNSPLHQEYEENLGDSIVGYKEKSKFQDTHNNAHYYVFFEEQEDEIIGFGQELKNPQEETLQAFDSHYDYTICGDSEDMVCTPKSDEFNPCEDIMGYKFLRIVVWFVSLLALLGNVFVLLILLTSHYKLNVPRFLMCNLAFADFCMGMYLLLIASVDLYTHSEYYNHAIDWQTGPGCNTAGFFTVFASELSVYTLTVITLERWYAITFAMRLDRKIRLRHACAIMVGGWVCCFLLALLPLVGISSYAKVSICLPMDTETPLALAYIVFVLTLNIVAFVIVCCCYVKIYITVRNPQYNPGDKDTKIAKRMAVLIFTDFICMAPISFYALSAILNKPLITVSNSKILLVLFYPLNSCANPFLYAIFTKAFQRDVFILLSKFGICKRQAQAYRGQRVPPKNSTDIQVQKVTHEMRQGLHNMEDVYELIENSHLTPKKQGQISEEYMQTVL

In the case of `CCOP(=S)(NC(C)C)Oc1ccccc1C(=O)OC(C)C` (stereo not given), the Potency [1] is reported as inconclusive: 68.6 µM [inhibitor, single point], the Potency [2] is reported as inconclusive: 54.5 µM [cytotoxic, partial curve] and the Potency [3] is reported as active: 6.16 µM. For the same molecule, the Potency [4] was inconclusive: 2.75 µM [rising, full curve] and the Potency [5] was inconclusive: 101 µM [cytotoxic, partial curve, poor fit].
With `CC(C)C#N` the Potency [1] was inconclusive: 65 µM [inhibitor, single point] and the Potency [2] was “inactive”.
With `C=CC(=O)NCNC(=O)C=C` the Potency [6] was inconclusive: 54.5 µM [activator].
With `O=[N+]([O-])c1cccc2cccnc12` the Potency [7] was inconclusive: 55.9 µM [activator, partial curve].
In the case of `Cn1c(N)nc2c3cccnc3ccc21`, the Potency [7] is reported as active: 32.7 µM.
With `Oc1ccc(C(=C(Cl)Cl)c2ccc(O)cc2)cc1` the Potency [7] was active: 48.5 µM, the Potency [2] was inconclusive: 30.6 µM [cytotoxic, partial curve, poor fit] and the Potency [8] was inconclusive: 13.7 µM [falling, partial curve]. The Potency [9] was inconclusive: 61 µM [activator, single point], the Potency [3] was inconclusive: 54.8 µM [cytotoxic, single point] and the Potency [10] was “inactive”. For the same molecule, the Potency [4] was inconclusive: 54.8 µM [single point] and the Potency [5] was inconclusive: 113 µM [cytotoxic, single point].
For `CCS(=O)(=O)C(C)(C)S(=O)(=O)CC`, the Potency [7] was “inactive”.
In the case of `CCCCC(O)(Cn1cncn1)c1ccc(Cl)cc1Cl` (stereo not given), the Potency [7] is reported as inconclusive: 61.1 µM [activator, partial curve], the Potency [2] is reported as active: 54.4 µM and the Potency [9] is reported as inconclusive: 4.85 µM [inhibitor, full curve]. The Potency [3] was inconclusive: 54.9 µM [cytotoxic, single point] and the Potency [5] was active: 113 µM.
In the case of `O=[N+]([O-])c1ccc(Oc2ccc(C(F)(F)F)cc2[N+](=O)[O-])cc1`, the Potency [7] is reported as inconclusive: 54.5 µM [activator, partial curve].
For `NNc1ccccc1`, the Potency [7] was inconclusive: 54.5 µM [activator, partial curve] and inconclusive: 68.6 µM [activator, partial curve, poor fit] and inconclusive: 29.8 µM [activator, partial curve, poor fit] and the Potency [2] was inconclusive: 60.4 µM [cytotoxic, partial curve].
With `CC1=C2[C@H]3OC(=O)[C@@H](C)[C@@H]3CC[C@@]2(C)C=CC1=O` the Potency [7] was inconclusive: 29.8 µM [activator, partial curve].
With `c1ccc(N=NNc2ccccc2)cc1` the Potency [7] was active: 28.3 µM and active: 27.3 µM, the Potency [2] was inconclusive: 0.178 µM [cytotoxic, partial curve] and the Potency [6] was active: 25.2 µM. For the same molecule, the Potency [10] was inconclusive: 65.8 µM [activator, partial curve] and inconclusive: 113 µM [activator, partial curve, poor fit], the Potency [4] was “inactive” and the Potency [5] was active: 92.9 µM and active: 101 µM.
With `CC(C)N(C(=O)CCl)c1ccccc1` the Potency [7] was “inactive”, the Potency [2] was active: 30.6 µM and the Potency [4] was inconclusive: 49 µM [falling, partial curve].
For `Nc1ccc(N)cc1`, the Potency [7] was inconclusive: 29.8 µM [activator, partial curve], the Potency [2] was inconclusive: 48.8 µM [cytotoxic, partial curve] and inconclusive: 21.7 µM [cytotoxic, full curve] and the Potency [9] was inconclusive: 54.5 µM [falling, partial curve]. For the same molecule, the activation [9] was inconclusive: -6.87%, the Potency [3] was inconclusive: 55.2 µM [cytotoxic, single point] and the Potency [5] was inconclusive: 127 µM [cytotoxic, single point] and inconclusive: 101 µM [cytotoxic, single point] and inactive.
In the case of `Cc1ccc(N)cc1`, the Potency [7] is reported as active: 2.45 µM and inconclusive: 66.3 µM [activator, single point] and inconclusive: 24.3 µM [activator, partial curve].
For `Nc1ccc(Cc2ccc(N)c(Cl)c2)cc1Cl`, the Potency [7] was active: 16.7 µM, the Potency [2] was inconclusive: 59.1 µM [cytotoxic, partial curve, poor fit] and the Potency [3] was inconclusive: 59.6 µM [cytotoxic, single point]. The Potency [10] was inconclusive: 123 µM [activator, single point], the Potency [4] was inconclusive: 26.6 µM [falling, partial curve] and the Potency [5] was inconclusive: 123 µM [cytotoxic, single point].
